Experimental data from PubChem BioAssay AID493208 (National Center for Advancing Translational Sciences (NCATS), 2011).
In all, about 44,000 compounds went through this assay and about 340 (0.77%) were called active. About 5% were inconclusive and are not listed. The call rests on the fitted dose curve; in most records, active means well fitted inhibition curve with a large enough effect; inconclusive means small, poorly fitted or top-dose-only effect; inactive means flat fitted curve, though single readings scatter. The list shows a part of the results.

Experiment: Acumen qHTS Assay for Inhibitors of the mTORC1 Signaling Pathway in MEF (Tsc2-/-, p53-/-) Cells: Sytravon;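 further: plate controls were DMSO for no effect and rapamycin for full effect; nearly all actives have a fitted effect of over 50% in size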
Conditions: phospho-rpS6 immunofluorescence/PI, 24 h; series mostly up to 38.3 µM; activity change, negative = inhibition: at the top concentration
Method in brief: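 Compounds act on Tsc2-/-, p53-/- fibroblasts carrying an empty vector for 24 h before fixation and dual staining for phospho-S6 and DNA (propidium iodide). Values are percentages of cells above a rapamycin-defined pS6/PI threshold.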

Activity change, negative = inhibition, inactive:
Cc1nc(-c2ccc(S(=O)(=O)Nc3ccc(C#N)cc3)cc2)co1 -0.509%
COc1cc(NS(=O)(=O)c2cnc(N)nc2)cc(OC)c1 -1.59%
COc1cc(C(=O)OCc2cc(=O)n3nc(C4CCCCC4)sc3n2)cc(OC)c1OC -2.36%
CCc1cccc(NC(=O)c2cn3c4c(ccc(Cl)c4c2=O)OC(C)C3)c1 (stereo unspecified) 0.0538%
COc1cc2cc(CNc3ccccc3)c(=O)n(CC(=O)Nc3ccccc3)c2cc1OC -6.97%
COc1ccc(N2CCN(C(=O)c3cccc(-n4c(C)nc5cccnc54)c3)CC2)cc1 -12.3%
O=C(NCCC1=CCCCC1)c1ccc2c(c1)N(Cc1ccccc1F)C(=O)c1ccccc1S2=O (stereo unspecified) -5.47%
CCc1cccc(-n2c(=O)c3cccnc3n2CC(=O)NCc2ccccc2)c1 2.02%
CCn1nnc2cc(C(=O)Nc3ccc(Cl)cc3C)ccc21 -4.98%
Cc1ccc2nc(N3CCN(c4ccccc4)CC3)c3nnnn3c2c1 -8.19%
CCCNS(=O)(=O)c1ccc2nc(NC(=O)c3ccc(F)cc3)sc2c1 -9.98%
COc1cccc(NC(=O)Cn2c(=O)cc(C)c3c(C)nn(-c4cccc(F)c4)c32)c1 -9.64%
CC1CCCCN1C(=O)Cn1c(=O)n(-c2ccc(Cl)cc2)c(=O)c2c3c(sc21)CCC3 (stereo unspecified) -7.49%
CCN1CCN(C(c2ccc(OC)cc2)c2c(O)cc(C)n(Cc3ccco3)c2=O)CC1 (stereo unspecified) 0.266%
COc1ccc(CNC(=O)c2ccc(NC(=O)N3CC4CCCN4c4ccccc43)cc2)cc1 (stereo unspecified) 9.22%
CCN(CC)c1nc2c(-c3cccc(Br)c3)nnn2c2ccccc12 -3.76%
COc1cccc(NC(=O)C2CCN(S(=O)(=O)c3cccc4nonc34)CC2)c1 -12.3%
COCCCn1c(=N)c(C(=O)NCC2CCCO2)cc2c(=O)n3cc(C)ccc3nc21 (stereo unspecified) -6.31%
Cc1ccc2c(=O)cc(C(=O)Nc3ccc(S(=O)(=O)N4CCC(C)CC4)cc3)oc2c1C 4.72%
CC(=O)c1ccc(S(=O)(=O)Nc2ccc(-c3ccc(N4CCCCCC4)nn3)cc2)cc1 3.57%
COc1cc(C2CC(=O)Nc3c2c(C)nn3-c2nc(C)cc(C)n2)cc(OC)c1O (stereo unspecified) -0.769%
COc1cccc(-c2nn3c(=O)cc(CN4CCN(S(=O)(=O)c5ccc(C)cc5)CC4)nc3s2)c1 -7.75%
Cc1ccc(CSc2nnc(-n3c(=O)c(C#N)cc4c(=O)n5cccc(C)c5nc43)s2)cc1 -2.9%
COc1ccc(-c2nc3ccccc3n3c(-c4cccc(C)c4)c4c(=O)n(C)c(=O)n(C)c4c23)cc1 0.374%
CSc1nc(=O)c2c(n1C)NC(=O)CC2c1ccccc1OC(C)C (stereo unspecified) -2.95%
CSc1ccc(CNC(=O)C2CCCN(S(=O)(=O)N(C)c3ccc(F)cc3)C2)cc1 (stereo unspecified) 0.976%
COc1cccc(-c2cn3c(n2)sc2cc(C(=O)NCCCc4ccccc4)ccc23)c1 5.83%
Cc1nn(Cc2ccc(Cl)c(Cl)c2)c(C)c1NC(=O)c1noc2c1CCc1ccccc1-2 -21.9%
CCOc1ccc(CCNC(=O)CCCn2c(=O)c3cccn3c3cccnc32)cc1OCC 0.613%
COC(=O)CC1Oc2ccccc2-n2cc(-c3ccc(C)cc3)nc21 (stereo unspecified) -4.64%
Nc1c(C(=O)NCc2ccc(Cl)cc2Cl)nnn1Cc1ccc(Br)cc1 0%
COc1ccc(OCC(=O)Nc2cc(-c3ccccc3F)nn2-c2ccccc2)cc1 3.79%
CCc1ccc(CNC(=O)c2cc3cc(S(=O)(=O)N4CCCCC4)ccc3n2C)cc1 0.518%
CCCn1ccc2c(OCC(=O)Nc3cc(C)ccc3C)cccc2c1=O -6.15%
Cc1ccc(S(=O)(=O)NCC2CCC(C(=O)NCc3ccc(F)cc3)CC2)cc1 (stereo unspecified) 2.12%
COc1ccc(C)cc1NC(=O)C1CCN(S(=O)(=O)c2c(C)noc2/C=C/c2ccco2)CC1 2.8%
O=C(Nc1ccc(F)cc1F)C(Cc1ccccc1)N1Cc2ccccc2C1=O (stereo unspecified) 5.17%
COc1cccc(-n2c(-c3ccc(Cl)cc3)cc3c2CC(C)(C)CC3=O)c1 -7.71%
O=C(CCC(=O)N1CC2CCCN2c2ccccc21)NCc1cccc(Cl)c1 (stereo unspecified) -28.2%
COc1cc2c(=O)n(Cc3ccccc3Cl)c(=O)n(CC(=O)Nc3ccccc3)c2cc1OC 1.28%
Cc1ccc(C(=O)Nc2nc3ccc(S(=O)(=O)N4CCCC4)cc3s2)cc1 -0.0251%
Cc1ccc(-c2nnc(SCC(=O)NC3CCCC3)nc2-c2ccc(C)cc2)cc1 -2.1%
COc1ccc(CN2C(=O)c3oc4ccc(F)cc4c(=O)c3C2c2ccc(O)cc2)cc1 (stereo unspecified) -10.6%
CCOc1ccc(NC(=O)CCC(=O)N2CC(C)Oc3ccc(C)cc32)cc1 (stereo unspecified) -2.14%
CCCCn1cc2c(c1-c1ccccc1Br)c(=O)n(C)c(=O)n2C -4.05%
Cc1nc(N2CCOCC2)c2c(C(=O)NCCc3ccccc3)c(C)oc2n1 -0.513%
Cc1ccc(C(=O)n2nc(-c3ccco3)nc2NCc2cccs2)cc1 -3.71%
CCOC(=O)C1CCN(S(=O)(=O)c2cc3c4c(c2)CC(=O)N4CCC3)CC1 -2.85%
CCN(CC)CCNC(=O)c1nn(-c2ccc(OC)c(Cl)c2)c(=O)c2c1c1ccccc1n2C -6.87%
CN(C)S(=O)(=O)n1cc(/C=C(\NC(=O)c2ccccc2Cl)C(=O)NCCCn2ccnc2)c2ccccc21 -3.72%
O=C(NCCc1ccccc1)C1(c2cccs2)CCOCC1 0.803%
O=C(NCCc1ccccc1Cl)c1ccc2c(c1)nc1n2CCOC1 -9.53%
CCc1nn(C(C)C(=O)N2CCN(c3cccc(C(F)(F)F)c3)CC2)c(=O)c2cc3occc3n12 (stereo unspecified) 0.667%
COc1cccc(C(=O)N2c3nc(-c4ccco4)nn3C3(CCCCC3)[C@@H]3CCCC[C@@H]32)c1 -2.75%
COc1cc(OC)cc(-c2nc3nc(C)c(CCC(=O)Nc4ccc(F)cc4F)c(C)n3n2)c1 2.93%
CCCNC(=O)c1c(C)nn(-c2cccc(C)c2)c1-n1cccc1 5.08%
CCc1ccccc1NC(=O)CSCc1cnn(-c2ccccc2)c1-n1cccc1 -10.3%
Cc1ccc(Cn2cc(C(=O)c3ccc(F)cc3)c(=O)c3cc4c(cc32)OCCO4)cc1 5.81%
CCOc1ccccc1CNCCNC(=O)c1nonc1N -9.16%
COc1cc(OC)c(NC(=O)CC(c2cccs2)N2Cc3ccccc3C2=O)cc1Cl (stereo unspecified) -6.86%
Cc1ccc2c(c1)c1c(c(=O)n(-c3ccccc3C)c(=O)n1CC(=O)N1CCCC1)n2C -0.68%
Cc1ccccc1Nc1sc(C(=O)c2ccccc2)c(N)c1C(=O)NCc1ccc(Cl)cc1 -7.22%
Cc1ccc2ncc3c(-c4ccc(F)cc4)nn(-c4cccc(F)c4)c3c2c1 4.71%
Cc1ccc(S(=O)(=O)c2cn(CC(=O)Nc3ccc4c(c3)OCO4)c3ccccc3c2=O)cc1 -10.4%
Cc1sc2ncn(CC(=O)N3CCN(c4ccc(F)cc4)CC3)c(=O)c2c1S(=O)(=O)N1CCCCC1 -3.12%
Cc1cccc2sc(N(CCCN(C)C)C(=O)c3ccc(Cl)s3)nc12 -2.18%
Cc1ccc(Nc2nc3c(S(=O)(=O)c4ccccc4)nnn3c3ccsc23)c(C)c1 -2.5%
Cc1cccc(NC(=O)Cn2nnc(C(=O)Nc3ccc(F)c(Cl)c3)c2N)c1 -5.32%
COc1cc(C2C(C(=O)OCC(C)C)=C(C)N=C3SCCC(=O)N32)ccc1OCc1ccccc1 (stereo unspecified) 1.74%
COc1cccc(NC(=O)CSc2nc(=O)n(Cc3ccco3)c3c2CCC3)c1 0.697%
Cc1cc(C)c2nc(N(Cc3cccnc3)C(=O)c3ccc(S(=O)(=O)N(C)C)cc3)sc2c1 -5.4%
Cn1c(C(=O)NCc2ccccc2F)cc2oc3ccccc3c21 -5.84%
CCN1CCN(c2cc3c(cc2F)c(=O)c(S(=O)(=O)c2ccc(OC)cc2)cn3CC)CC1 2.58%
Cc1c(C(=O)Nc2cccc(C(F)(F)F)c2)sc2nc3n(c(=O)c12)CCCC3 -0.891%
COc1cccc2sc(N(Cc3cccnc3)C(=O)Cc3ccccc3)nc12 0.459%
O=C(c1ccco1)n1nc(-c2ccccc2)nc1NCc1ccc(F)cc1 -2.26%
CCCCNc1ncnc2c1nnn2C -7.5%
CCN1CCN(c2oc(-c3ccc(COc4ccc(C)cc4)o3)nc2C#N)CC1 -1.34%
COc1ccc2oc(-c3cccc(NC(=O)c4ccc(C#N)cc4F)c3)nc2c1 -13.9%
CCCCNC(=O)c1ccc2c(c1)NC(=O)C(CS(=O)(=O)Cc1cccc(C)c1)N2 (stereo unspecified) -10.1%
COc1cccc(NC(=O)Cn2c(=O)n(-c3ccc(Cl)cc3)c(=O)c3oc4ccccc4c32)c1 -4.78%
COc1cc(C(=O)Nc2ccc3[nH]c(=O)sc3c2)cc(OC)c1OC -19.9%
CC(C)C(=O)N1c2ncnn2C2(CCCCC2)[C@@H]2CCCC[C@@H]21 -7.56%
CC1=C(C(=O)Nc2cccnc2)C(c2cccc(F)c2)n2nc(SCc3ccccc3)nc2N1 (stereo unspecified) -12.9%
COc1cccc(C(=O)NCC(=O)OCc2cc(=O)n3c(C)csc3n2)c1 -13.2%
CC(C)Cn1c(=O)c2sccc2n2c(CCCC(=O)NCCc3ccccc3)nnc12 -0.0061%
COc1ccc(C2CC(=O)N(Cc3ccc(F)cc3)c3ccccc3S2)cc1 (stereo unspecified) 0.338%
Cc1ccc(S(=O)(=O)N2CCN(Cc3noc(CCC(=O)N4CCCCC4)n3)CC2)c(C)c1 -10.8%
Cc1nc(Nc2ccc(Cl)cc2)cc(-c2ccccc2)n1 -12.1%
CCOc1ccc(NC(=O)CC2C(=O)N(c3ccccc3)C(=O)N2C2CCCCC2)cc1 (stereo unspecified) -16.5%
COc1ccccc1CNC(=O)NCc1noc2ccc(C)cc12 3.15%
O=c1c2cn[nH]c2nc(SCc2cccc(Br)c2)n1-c1ccc(Cl)cc1 -15.2%
Cc1ccn2c(Nc3ccc4c(c3)OCO4)c(-c3ccc(N(C)C)cc3)nc2c1 6.07%
COc1ccc(CNC(=O)c2nc(SC(C)C)ncc2Cl)cc1 -7.25%
Cc1nc2ccc(S(=O)(=O)CCC(=O)Nc3ccc(C)c(C)c3)cc2s1 -2.48%
CCOC(=O)c1c(-c2ccccc2)csc1NC(=O)c1cc(-c2ccc(Br)cc2)on1 -18.9%
